From PubChem BioAssay AID463173 (ICCB-Longwood Screening Facility, Harvard Medical School, 2010)
Out of some 52,000 compounds screened, about 1,700 (3.3%) were called active. Cut-off read from the data, not from the text of the source: active = survival mostly below about 52% (no sharp cut-off); inactive = mostly above about 56%. Some of the results follow.

Tested on: Wild type
Test: S. aureus survival, RN4220 and DeltatarO strains – OD600, teichoic acid synthesis inhibitors, primary screen (AID 463173)
Settings: S. aureus RN4220 wild type/DeltatarO growth, OD600, 18 h, active compounds read low, screened at 18.75 µg/mL (by protocol)

Structure (SMILES)	survival
COc1ccc(C(=O)/C=C/c2cn(CC(O)CN(CC(C)C)CC(C)C)c3ccccc23)cc1 (configuration not stated)	inactive: 44%
C=CCNC(=O)CSc1ccc(C)cc1	inactive: 107%
COc1cccc(C(=O)Nc2ccc(-c3nc4ccccc4s3)cc2Cl)c1	inactive: 68%
CCn1c(=O)n(-c2ccc(F)c(Cl)c2)c(=O)c2c3c(sc21)CN(C(C)=O)CC3	inactive: 125%
Cc1ccc(C)c(CSc2cn(CC(=O)N3CCCCCC3)c3ccccc23)c1	inactive: 90%
COc1cccc(N2C(=O)CSC23C(=O)N(Cc2ccccc2)c2ccccc23)c1 (configuration not stated)	inactive: 69%
COCCNC(=O)c1ccc(-n2c(-c3ccccc3)cc3c2CCCCC3)cc1	inactive: 132%
COc1ccc(NC(=O)CCCc2nnc3n(CCC(C)C)c(=O)c4sccc4n23)c(OC)c1	inactive: 96%
COc1ccc(-c2csc3nc(-c4ccc(F)cc4)oc(=O)c23)cc1	inactive: 70%
COc1ccc(OCC2Cn3c(nc4c3c(=O)n(C)c(=O)n4C)O2)cc1 (configuration not stated)	inactive: 100%
COc1cccc(Cn2c(CNC(=O)Cc3cccc(C)c3)nc3cccnc32)c1	inactive: 75%
COc1ccc(C2=C(C)C(=NCCCN3CCN(c4cc(C)ccc4C)CC3)NS2(=O)=O)cc1	inactive: 84%
COc1ccc(N(CC(=O)Nc2cccc(Cl)c2C)S(=O)(=O)c2c(C)nn(C)c2C)cc1	inactive: 82%
Cc1ccc(NC(=O)c2cccc3c2C(=O)N(C2CCCCC2)C3)c(C)c1	inactive: 121%
CC(C)N(C(=O)CSc1nnc(NC(=O)c2ccco2)s1)C(C)C	inactive: 95%
COc1ccccc1-c1nc2c(c(SCC(=O)Nc3ccc(C)c(C)c3)n1)Cc1c(CO)cnc(C)c1O2	inactive: 53%
O=C(c1cc2c(s1)-c1ccccc1OC2)N1CCN(c2ccccc2F)CC1	inactive: 53%
Cc1c(C)n(C)c2ccc(C(=O)NCCCN3CCCCC3C)cc12 (configuration not stated)	inactive: 136%
Cc1cc(C)c2[nH]c(=O)c(CN(CCN3CCOCC3)C(=O)Nc3ccc(F)cc3)cc2c1	inactive: 97%
CCc1c(C)sc(NC(=O)c2cc(-c3cccc(Cl)c3)on2)c1C#N	inactive: 110%
CCOC(=O)C1CCCN(c2cc(C)nc3c(-c4ccccc4OC)c(C)nn23)C1 (configuration not stated)	inactive: 74%
CCCCN(CC)CCCNC(=O)c1nn(C)c2c1CS(=O)(=O)c1ccccc1-2	inactive: 85%

Structure (SMILES)	survival
Cc1ccc(C)c(NC(=O)Cn2cc(C(=O)c3ccco3)c3ccccc32)c1	inactive: 72%
CCCCCOc1c(Cl)cc(C(=O)N(Cc2ccc(C)o2)C2CCS(=O)(=O)C2)cc1Cl (configuration not stated)	inactive: 91%
CCCN(CCC)CCCNC(=O)C1CCN(S(=O)(=O)CC)CC1	inactive: 120%
COc1ccc(C)c2sc(N(Cc3cccnc3)C(=O)C3CCCCC3)nc12	inactive: 51%
CCCn1cc(S(=O)(=O)c2ccccc2)c(=O)c2cc(F)c(N3CCCC(C)C3)cc21 (configuration not stated)	inactive: 71%
COc1ccc(C)cc1NC(=O)c1c(C)oc2ncn(CC(C)C)c(=O)c12	inactive: 55%
CCOC(=O)c1ccc(N2C(=O)c3n[nH]c(-c4ccco4)c3C2c2ccc(O)cc2)cc1 (configuration not stated)	inactive: 67%
CC1=C(C(=O)Nc2ccccc2)C(c2cccnc2)n2nc(SCc3ccccc3Cl)nc2N1 (configuration not stated)	inactive: 163%
CCOC(=O)Cn1c(=O)n(C2CCCCC2)c2nc(-c3cccc(F)c3)nc(C(N)=O)c21	inactive: 70%
Cc1ccc(CSCC(=O)N2CCN(c3ccccc3F)CC2)cc1	inactive: 45%
Cc1ccc(S(=O)(=O)CC(=O)Nc2sc3c(c2C#N)CCCC3)cc1	inactive: 123%
CCn1cc(CCC(=O)NCc2ccccc2OC)c2ccccc21	inactive: 76%
CC(=O)NS(=O)(=O)c1ccc(N=NN2CCCCC2)cc1	inactive: 133%
O=C(Nc1ccc(Cl)cc1)N1CCC(c2nc(-c3ccc(F)cc3)no2)CC1	inactive: 101%
Cc1ccc(S(=O)(=O)c2cc3cc(C(=O)O)ccc3oc2=O)cc1	inactive: 119%
CCOC(=O)c1c(NC(=O)COc2cc(C)ccc2C(C)C)sc(C)c1C	inactive: 67%
O=C(O)CCCNC1C=CS(=O)(=O)C1 (configuration not stated)	inactive: 105%
CCOc1cccc(C(c2c(C)n(C)n(-c3ccccc3)c2=O)c2c(C)n(C)n(-c3ccccc3)c2=O)c1OC	inactive: 78%
CCOc1ccc(NC(=O)c2nn(C)c3c2CS(=O)(=O)c2ccccc2-3)cc1	inactive: 83%
Cc1cc2c(cc(C(=O)OC(C(=O)NC3CCCC3)c3ccccc3F)n2C)o1 (configuration not stated)	inactive: 137%
O=c1[nH]nc(SCc2cccc3ccccc23)c(=O)[nH]1	inactive: 114%
COc1ccc(CCNC(=O)CCCn2c(=O)c3ccccc3n(CC(=O)Nc3cc(Cl)ccc3C)c2=O)cc1OC	inactive: 88%

Structure (SMILES)	survival
CCOc1ccccc1NC(=O)Cn1c(=O)n(-c2ccc(F)cc2)c(=O)c2sc3ccccc3c21	inactive: 88%
Cc1ccc2nc(-c3cc(NC(=O)/C=C/c4ccccc4)ccc3Cl)oc2c1	inactive: 65%
O=C(Nc1cccc(OCc2cc(=O)n3c4c(sc3n2)CCCC4)c1)c1ccc(F)cc1	inactive: 123%
Cc1ccccc1-c1noc(CCC(=O)Nc2cccc(C)c2C)n1	inactive: 90%
CCC(=O)N1CCN(c2ccc(NC(=O)COc3ccccc3)cc2)CC1	inactive: 106%
Cc1ccc(S(=O)(=O)NCc2ccc(/C=C(/C#N)C(=O)NCc3ccccc3)o2)cc1	inactive: 114%
COc1cc(Cl)c(C)cc1NC(=O)c1cn(C2CCCC2)c(=O)c2c1c1ccccc1n2C	inactive: 95%
COc1ccc(C(=O)Nc2ccc3nc(N4CCC(C)CC4)cc(C)c3c2)cc1	inactive: 86%
O=C(c1cccc(Cl)c1)N1CCN(CCc2ccncc2)CC1	inactive: 98%
CCOc1ccc(-c2nnc(SCC(=O)NCCc3ccc(OC)c(OC)c3)nc2-c2ccc(OCC)cc2)cc1	inactive: 73%
CCC/C(O)=C1\C(=O)CC(C)(C)CC1=Nc1ccccc1OC	inactive: 115%
COc1ccc(Cl)cc1-n1c(/C=C/c2cccc3ccccc23)nc2ccccc2c1=O	inactive: 70%
CCOCCCNC(=O)C(Cc1ccccc1)NS(=O)(=O)c1ccc2c(c1)c(=O)n(C)c(=O)n2C (configuration not stated)	inactive: 77%
COc1ccc(-c2nc(CSc3nncn4c3cc3occc34)c(C)o2)cc1	inactive: 112%
O=C(Nc1ccc2c(c1)OCO2)c1ccccc1	inactive: 117%
CC1CCN(S(=O)(=O)c2ccc(S(=O)(=O)N3CCCN(Cc4ccccc4)C3)cc2)CC1	inactive: 107%
Cc1nn(C(=O)c2ccc(Br)cc2)c(C)c1S(=O)(=O)N1CCOCC1	inactive: 71%
CCOc1ccc(CCNC(c2cccc(Cl)c2)c2nnc(-c3ccccc3)o2)cc1OCC (configuration not stated)	inactive: 89%
Cc1coc2c(C)c3oc(=O)c(CCC(=O)NCCc4ccccc4)c(C)c3cc12	inactive: 84%
CC(C)C(=O)Nc1cccc(S(=O)(=O)c2cccc(NC(=O)C(C)C)c2)c1	inactive: 104%
CCc1ccc(-c2[nH]c3c(c2-c2sc(C)c(C(=O)OC)c2O)c(=O)[nH]c(=O)n3C)cc1	inactive: 28%
COC(=O)CNC(=O)c1c(-c2ccccc2)noc1C	inactive: 86%

Structure (SMILES)	survival
CCCCN(CCCC)S(=O)(=O)c1ccc2oc(C(=O)NCc3ccc(C)cc3)c(C)c2c1	inactive: 92%
CCCCN1C(=O)C(O)(c2c[nH]c3ccccc23)c2cc(Br)ccc21 (configuration not stated)	inactive: 78%
Cn1c(NCCO)nc2c1c(=O)n(Cc1cccc(F)c1)c(=O)n2C	inactive: 75%
COc1cccc(/C=C/c2nc(C#N)c(NCCc3ccc(OC)c(OC)c3)o2)c1	inactive: 60%
COc1ccc(C(=O)N2CCC(C(=O)O)CC2)cc1	inactive: 100%
CCOc1ccc(CCNC(=O)c2cnc3c(-c4ccc(F)cc4)c(C)nn3c2C)cc1OCC	inactive: 159%
Cc1ccc(NC(=O)Cn2c(=O)n(Cc3ccco3)c(=O)c3sc4ccccc4c32)cc1C	inactive: 126%
O=C(NCCc1ccc(Cl)cc1)c1cnc2sc(N3CCCCC3)nn2c1=O	inactive: 75%
COc1ccc2c(c1)sc1ncc(C(=O)NCc3ccc(OC(C)C)cc3)c(=O)n12	inactive: 79%
COc1ccc(-c2cc(C(F)(F)F)nc(SCCC(=O)Nc3cc(C)ccc3O)n2)cc1	inactive: 46%
COC(=O)c1sc(NC(=O)c2ccco2)c(C#N)c1C	inactive: 82%
O=C1CN=C(Nc2ccccc2)N1c1ccccc1	inactive: 99%
Oc1c(C(c2ccc(Cl)cc2)N2CCC3(CC2)OCCO3)sc2nc(-c3ccco3)nn12 (configuration not stated)	active: 0%
O=C(NC1CCCCC1)C(c1ccccn1)N(C(=O)Cn1nnc(-c2ccccc2)n1)c1ccc2c(c1)OCO2 (configuration not stated)	inactive: 111%
CCCC(C(=O)NC1CCCC1)N(C(=O)Cn1nnc(-c2ccc(C)o2)n1)c1ccccc1 (configuration not stated)	inactive: 114%
CCOc1ccccc1NC(=O)CSc1nc2cc(OC)c(OC)cc2c2nc(-c3ccccc3)nn12	inactive: 70%
CCn1c(=O)c(C(=O)Nc2ccc(C(C)=O)cc2)nc2ccccc21	inactive: 74%
O=C(Cn1c(=O)oc2ccccc21)Nc1ccc(C(=O)O)cc1	inactive: 72%
COc1cc(NC(=O)c2cccc3c2C(=O)N(C2CCCCC2)C3)cc(OC)c1	inactive: 75%
Cc1ccc(C)c(CN2C(=O)c3ccccc3S(=O)(=O)c3ccc(C(=O)N4CCN(c5ccccc5)CC4)cc32)c1	inactive: 79%
COc1ccc(NC(=O)c2sc3nc(-c4ccc(OC)cc4)cc(C(F)(F)F)c3c2N)cc1	inactive: 72%
